Not every detail of the peptide structures is certain; ends, links or a residue may be inferred. Non-standard residues stand in square brackets, D forms with d. Residues, ends and D or L forms follow the SMILES beside them. *: point of attachment. dGly(2-thienyl) = N[C@@H](C(=O)O)c1cccs1; Hyp = O=C(O)[C@@H]1C[C@@H](O)CN1; Bn = c1ccc(C*)cc1
How the values were obtained:
ETB = ETB radio receptor assay *2, 125I-endothelin-1, guinea pig kidney crude membrane fraction; assay type: binding, Guinea pigs; details: relative activity, 37 °C, 90 minutes
Procedure, shortened: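 Radioligand binding used crude guinea pig kidney membranes (2.1 µg protein) with 740 Bq 125I-endothelin-1. Incubation was 90 min at 37 °C in 50 mM Tris-HCl pH 7.4, 0.1 mM PMSF, 1 mM EDTA, 0.2% BSA. Bound radioactivity was collected by GF/B filtration and measured by gamma counting.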

[1] = molecular target: T1, endothelin receptor B (ETB) (Bos taurus, UniProt P28088); test: Assay of affinity for receptor (2): binding activity on ETB receptor *1, 125I-labeled endothelin-1, bovine brain membrane fraction; details: specific activity, taking the binding activity of the compound of Example 8 on receptor B as 100, 25°C, 1 hour
T1 construct: A membrane fraction prepared from the bovine brain; from tissue; host or cells: bovine brain membrane fraction
T1 sequence (P28088 27-441): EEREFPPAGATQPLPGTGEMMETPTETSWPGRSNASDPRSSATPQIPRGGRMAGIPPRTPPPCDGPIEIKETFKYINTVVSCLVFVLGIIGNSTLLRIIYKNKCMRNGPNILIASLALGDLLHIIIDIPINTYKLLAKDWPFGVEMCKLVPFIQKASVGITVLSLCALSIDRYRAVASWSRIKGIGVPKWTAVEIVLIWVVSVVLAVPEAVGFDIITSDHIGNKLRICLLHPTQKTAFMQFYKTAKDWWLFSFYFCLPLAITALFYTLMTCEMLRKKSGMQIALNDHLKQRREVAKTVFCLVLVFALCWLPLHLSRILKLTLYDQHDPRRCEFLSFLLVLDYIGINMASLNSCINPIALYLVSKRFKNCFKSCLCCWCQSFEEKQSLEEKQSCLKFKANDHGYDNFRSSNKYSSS
Method: Assay of Affinity for Receptor (2) ... Binding Activity on ETB Receptor *1
A membrane fraction prepared from the bovine brain was diluted to 0.15 mg/ml by using a buffer solution for assay, and 100 µl of the resulting suspension of the membrane fraction was poured into each assay tube to use for assay. To this suspension of the membrane fraction was added 2 µl of 5 nM ^125I labeled endothelin-1 solution. Further, 3 µl of a test peptide solution was added thereto, followed by incubation at a temperature of 25°C for 1 hour. Then, the resulting suspension was diluted with 900 µl of the buffer solution for assay cooled with ice, and thereafter separated into a supernatant and a precipitate by centrifugation at 12,000 X g for 10 minutes. Cell membranes and an endothelin receptor B (ETB) embedded therein were contained in the precipitate, and radioactive iodine-labeled endothelin bound to the receptor was also recovered in the precipitate. Accordingly, the amount of radioactive iodine-labeled endothelin bound to the endothelin receptor B (ETB) was determined by measuring the amount of radioactive iodine contained in the precipitate with a gamma-ray counter. The numerical value of ETB shown in Table 1 is the value of specific activity, taking the binding activity of the compound of Example 8 on the receptor B as 100.

[2] = molecular target: T2, endothelin receptor A (ETA) (Sus scrofa, UniProt Q29010); test: Assay of affinity for receptor (1): binding activity on ETA receptor, 125I-labeled endothelin-1, porcine heart membrane fraction; set-up: key: relative specific activity; reference cyclic pentapeptide ETA binding = 1.0; details: specific activity, taking the binding activity of control cyclo[-D-Glu-Ala-D-aIle-Leu-D-Trp-] on receptor A as 1.0, 25°C, 1 hour
T2 construct: A membrane fraction prepared from the porcine heart; from tissue; host or cells: porcine heart membrane fraction
T2 sequence (Q29010 21-427): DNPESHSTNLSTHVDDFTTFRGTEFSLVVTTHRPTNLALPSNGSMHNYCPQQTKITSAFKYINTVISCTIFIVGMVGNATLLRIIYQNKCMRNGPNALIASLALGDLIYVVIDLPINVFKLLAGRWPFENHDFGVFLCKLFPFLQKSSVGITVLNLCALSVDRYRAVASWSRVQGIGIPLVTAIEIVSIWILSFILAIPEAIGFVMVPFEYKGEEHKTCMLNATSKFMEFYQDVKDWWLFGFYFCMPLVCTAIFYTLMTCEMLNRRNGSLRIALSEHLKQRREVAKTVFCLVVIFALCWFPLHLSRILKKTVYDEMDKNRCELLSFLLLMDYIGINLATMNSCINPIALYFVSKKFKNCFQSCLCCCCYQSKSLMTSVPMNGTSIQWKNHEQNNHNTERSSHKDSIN
Procedure, shortened: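 Porcine heart membranes (0.15 mg/ml) incubated with 125I-endothelin-1 and test peptide for 1 h at 25°C, then centrifuged; pellet-bound radioactivity counted by gamma counter. Values given as specific activity relative to reference cyclo[-D-Glu-Ala-D-aIle-Leu-D-Trp-], set at 1.0.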

CC(C)C[C@@H]1NC(=O)[C@@H](c2cccs2)NC(=O)[C@H](CC(=O)O)NC(=O)[C@@H]2C[C@@H](OCc3ccccc3)CN2C(=O)[C@@H](CC(=O)O)NC(=O)[C@@H](Cc2c[nH]c3ccccc23)NC1=O [Example 88, cyclo[-D-Asp-Hyp(Bzl)-Asp-D-Thg(2)-Leu-D-Trp-]] (cyclo(D[dGly(2-thienyl)]L[dW][dD][Hyp](Bn)))
Binding Activity on ET Receptor (R. act.) ETB*2 (ETB): 210 | Binding Activity on ET Receptor (R. act.) ETB*1 [1]: 200 | Binding Activity on ET Receptor (R. act.) ETA [2]: 650

From patent EP0552417B1, “Cyclic peptides and use thereof” (priority 1991, dated 1993)
